Assay results from PMC4336329 (PLoS ONE, 2015).
Screen size: about 310,000 compounds; about 14,000 (4.5%) showed an effect of 50% or more. Effects have a minus sign here. The list shows a part of the results.

Molecular target: human ether-à-go-go-related gene (hERG) potassium channel (human, UniProt Q12809)
Assay: primary screen, population patch clamp on CHO cells stably expressing hERG
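Note: peak tail current of the secondary pulse compared with the same well before compound.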

Sequence of human ether-à-go-go-related gene (hERG) potassium channel (Q12809 whole entry, looked up): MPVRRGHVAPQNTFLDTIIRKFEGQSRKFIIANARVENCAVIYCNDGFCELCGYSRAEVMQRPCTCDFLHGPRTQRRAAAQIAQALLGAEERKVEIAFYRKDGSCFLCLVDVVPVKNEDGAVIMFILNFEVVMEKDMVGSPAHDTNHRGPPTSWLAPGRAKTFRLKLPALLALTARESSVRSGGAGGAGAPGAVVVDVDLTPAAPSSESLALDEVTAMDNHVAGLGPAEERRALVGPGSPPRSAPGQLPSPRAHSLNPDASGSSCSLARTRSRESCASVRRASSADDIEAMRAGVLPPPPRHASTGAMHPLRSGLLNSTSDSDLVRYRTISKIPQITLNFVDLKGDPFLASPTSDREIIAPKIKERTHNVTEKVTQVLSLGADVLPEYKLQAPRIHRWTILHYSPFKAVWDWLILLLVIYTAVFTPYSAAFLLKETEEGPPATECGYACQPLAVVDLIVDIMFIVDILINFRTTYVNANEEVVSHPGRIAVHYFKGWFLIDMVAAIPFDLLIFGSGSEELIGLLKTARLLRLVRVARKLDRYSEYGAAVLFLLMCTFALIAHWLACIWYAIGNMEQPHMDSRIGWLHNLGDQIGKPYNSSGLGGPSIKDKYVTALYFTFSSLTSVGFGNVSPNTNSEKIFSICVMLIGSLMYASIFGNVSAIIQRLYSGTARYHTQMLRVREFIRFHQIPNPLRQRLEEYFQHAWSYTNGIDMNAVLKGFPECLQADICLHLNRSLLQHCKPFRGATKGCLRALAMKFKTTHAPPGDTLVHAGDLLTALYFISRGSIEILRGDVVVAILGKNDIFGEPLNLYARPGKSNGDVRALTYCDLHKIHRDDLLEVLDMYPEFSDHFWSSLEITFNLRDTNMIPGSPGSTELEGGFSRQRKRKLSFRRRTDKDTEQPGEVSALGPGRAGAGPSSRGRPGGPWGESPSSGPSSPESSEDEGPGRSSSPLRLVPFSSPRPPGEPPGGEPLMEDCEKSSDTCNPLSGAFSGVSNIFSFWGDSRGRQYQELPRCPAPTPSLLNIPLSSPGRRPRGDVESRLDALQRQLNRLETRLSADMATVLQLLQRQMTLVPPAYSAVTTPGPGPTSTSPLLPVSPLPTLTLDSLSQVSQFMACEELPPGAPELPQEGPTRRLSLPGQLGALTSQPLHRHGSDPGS

Row | SMILES | hERG current change (%, negative = inhibition) at 10uM [%]
1 | COc1ccc(-n2c(Cc3cccs3)nnc2SCC(=O)Nc2ccc3c(c2)OCCO3)cc1 | -31.1
2 | Cc1cc2oc(=O)cc(CN3CCN(Cc4ccccc4)CC3)c2cc1O | -53.3
3 | CC(/C=C/c1ccco1)=N\NC(=O)CNc1cccc(C)c1 | 18.1
4 | Cc1ccc(NC(=O)COC(=O)CCC(=O)c2cccs2)cc1S(=O)(=O)N1CCOCC1 | -26.3
5 | CCN(C(=O)c1cnc(NC(C)C)cc1C(F)(F)F)c1ccc(Cl)cc1 | -36.4
6 | COc1ccc(OCc2nc3c4cc(OC)c(OC)cc4nc(=S)n3[nH]2)cc1 | 11.7
7 | O=C(NCCc1csc(-c2cccnc2)n1)c1ccco1 | 13.4
8 | COC(=O)c1c(C#N)c(N)nc2c1CCCC2 | 11.5
9 | COc1ccc2nc(NC(=O)Cc3cccs3)sc2c1 | 4.23
10 | CC(=O)NC(CC(=O)NNC(=O)c1cc2ccccc2cc1O)c1ccccc1 (stereo not drawn) | 6.83
11 | CNC(=O)c1cc(C(=O)c2ccc(Cl)cc2)c[nH]1 | 17.1
12 | COC(=O)c1ccc(SCC(=O)NCc2ccccc2)c([N+](=O)[O-])c1 | 2.47
13 | Oc1ccc(Br)cc1/C=N/NC(=S)NCCc1ccccc1 | 4.94
14 | NC(=O)CSC1=Nc2ccccc2C2=NC(c3ccccc3)C(=O)N12 (stereo not drawn) | 1.61
15 | Clc1nc2ccccc2cc1-c1nnn(-c2ccccc2)n1 | 12.1
16 | O=C(Nc1ccc(S(=O)(=O)N2CCc3ccccc32)cc1)C(F)(F)F | 8.75
17 | COC(=O)c1[nH]c(C)c(/C(O)=C2\C(=O)C(=O)N(CCN3CCOCC3)C2c2cccs2)c1C (stereo not drawn) | 9.33
18 | CN(C)P(=S)(Nc1ccccc1)C(Cl)(Cl)Cl (stereo not drawn) | -7.41
19 | CC(C)[C@@H](C(=O)OCC(=O)Nc1ccc2c(c1)OCO2)N1C(=O)c2ccccc2C1=O | -10.2
20 | CC(NC(=S)Nc1ccccc1Cl)C(c1ccccc1)N1CCOCC1 (stereo not drawn) | -15.2
21 | Cc1cccc(N2C(=O)N3[C@H](c4ccc(Br)cc4)[C@@H]4C(=O)N(C(C)(C)C)C(=O)[C@@H]4[C@]3(Cc3ccc(Cl)cc3)C2=O)c1 | 14.7
22 | COc1ccc(OCCSc2nnc(-c3ccoc3C)n2C)cc1 | -19.7

Row | SMILES | hERG current change (%, negative = inhibition) at 10uM [%]
23 | N/C(=N\c1nc2c(c(=O)[nH]1)CCCC2)Nc1ccc(Oc2ccccc2)cc1 | 1.8
24 | COCCN(CC1CCCN(C2Cc3ccccc3C2)C1)C(=O)CSC (stereo not drawn) | -10.7
25 | COc1ccc(N=C2C(=Nc3ccc(OC)cc3)N(c3ccc(OC)cc3)C(=S)N2C)cc1 | 10.5
26 | CC(=O)/C(=N\Nc1ccc(Cl)cc1Cl)Sc1cccc2cccnc12 | 14.1
27 | O=S(=O)(CC(CN1CCCCC1)N1CCCCC1)c1ccccc1 (stereo not drawn) | -14
28 | CC/C(=C/c1ccccc1)c1cccc2[nH]c3c(OC)cccc3c12 | 23.3
29 | CSc1ccc(C2C(C#N)=C(N)Oc3cc4c(cc32)OCO4)cc1 (stereo not drawn) | 7.1
30 | O=C1OC(c2ccccc2)=C/C1=C/c1cccs1 | 10.8
31 | CCCCCCCOC1(c2ccccc2)OC(=O)c2ccccc21 (stereo not drawn) | -4.42
32 | Cc1ccc(C)c(N2CCN(C(=O)c3ccc4nsnc4c3)CC2)c1 | -1.44
33 | NNC(=O)CNC(c1ccccc1)c1cc(Br)ccc1NC(=O)c1ccc(Br)cc1 (stereo not drawn) | -27.1
34 | COc1cccc(/C=C/C(=C2/C(=O)N(c3ccccc3)N=C2C)c2ccc(Br)cc2)c1OC | 4.39
35 | O=S(=O)(c1cc(Cl)ccc1Cl)n1cccn1 | 30.9
36 | O=C(COc1ccc(S(=O)(=O)N2CCOCC2)cc1)Nc1ccc2c(c1)OCCO2 | -19.1
37 | O=C(COC(=O)C1=COCCO1)Nc1cc(S(=O)(=O)N2CCCCC2)ccc1Cl | -7.45
38 | Cc1cccn2c(=O)c3cc(C#N)c(=O)n(CCCN4CCOCC4)c3nc12 | -60.7
39 | COc1ccc(-c2cc(C)no2)cc1S(=O)(=O)NCC1CCN(Cc2cc(C)ccc2C)CC1 | -72
40 | O=c1[nH]c(NC2CCCCC2)nnc1Cc1ccccc1 | 6.98
41 | Cc1ccc(S(=O)(=O)N2CCN(C)CC2)cc1-c1nnc2c3ccccc3c(C)nn12 | -17.6
42 | O=S(=O)(Cc1noc(-c2ccc(OC(F)(F)F)cc2)n1)c1ccc(F)cc1 | -14.8
43 | CCOC(=O)CC1C(=O)NCCN1Cc1cccs1 (stereo not drawn) | 6.33
44 | Cc1cc(Oc2cc(NN3CCCCC3)c([N+](=O)[O-])cc2[N+](=O)[O-])ccc1[N+](=O)[O-] | -1.87

Row | SMILES | hERG current change (%, negative = inhibition) at 10uM [%]
45 | CCc1cc2c(-c3ccccc3)cc(=O)oc2cc1OC(C)C(=O)O (stereo not drawn) | 21.2
46 | CCCCC(=O)Nc1cnc(NC(=O)c2cccs2)cc1C | -17.5
47 | COCCNC(=O)CSc1ccc(-c2nc3ccccc3[nH]2)cn1 | 4.62
48 | COc1ccc(CCC(=O)Nc2nnc(C)s2)cc1 | 6.76
49 | C1=C(c2ccccc2)CCNC1.Cl | 2.61
50 | COc1ccc2nc(N/C(N)=N/S(C)(=O)=O)nc(C)c2c1 | 1.56
51 | CC(=O)c1ccc(NC(=O)CC23CC4CC(C2)CC(n2nnc(C)n2)(C4)C3)cc1 | -8.69
52 | C#CCSc1nncn1C(=O)/C=C/c1ccccc1 | 5.54
53 | Cc1ccccc1N1CCN(C2CCCN(C(=O)CCN3CCCO3)C2)CC1 (stereo not drawn) | -0.397
54 | Cc1cc(-c2ccc(C)c(S(=O)(=O)NCCCN3CCN(c4ccccc4)CC3)c2)on1 | -33.2
55 | CC(=O)c1c(C)[nH]c(C(=O)CN2CCN(S(=O)(=O)c3ccc(C(C)C)cc3)CC2)c1C | 8.27
56 | COc1ccc(S(=O)(=O)N=C2C=C(C)C(=O)C(C)=C2)cc1 | -8.48
57 | O=C(/C=C/c1ccccc1)N/C(=C/c1ccccc1)C(=O)NCCCO | -7.96
58 | CCC(Oc1ccccc1)C(=O)N1CCN(S(=O)(=O)c2ccccc2)CC1 (stereo not drawn) | -3.89
59 | NC(=O)C1CCN(C(=O)COc2ccc3c4c(c(=O)oc3c2)CCC4)CC1 | 5.37
60 | CC(=O)c1ccc(S(=O)(=O)N(CCCO)Cc2cc3cc(C)ccc3[nH]c2=O)cc1 | -25.9
61 | Cc1ccnc(SCCn2c(N3CCN(C)CC3)nc3c2c(=O)n(C)c(=O)n3C)n1 | 13.6
62 | Cc1cc(C)nc(NS(=O)(=O)c2ccc(NC(=O)Cc3ccccc3)cc2)n1 | 25.2
63 | CC(C)c1onc(C(=O)Nc2ccc3c(c2)OCO3)c1[N+](=O)[O-] | 19.7
64 | CC1CCCC(C)N1S(=O)(=O)c1ccc(S(=O)(=O)N2CCOCC2)cc1 (stereo not drawn) | 4.83
65 | COc1ccc(CC(=O)OCC(=O)N2CCCc3ccccc32)cc1 | 3.67
66 | O=C(CCc1ccccc1)N1CCN(c2ccc(F)cc2)CC1 | -23

Row | SMILES | hERG current change (%, negative = inhibition) at 10uM [%]
67 | COc1cc(CC(=O)NCCc2ccc(S(N)(=O)=O)cc2)cc(OC)c1OC | 13.1
68 | O=C(CSc1nnnn1-c1cccnc1)Nc1ccccc1F | 15.4
69 | Cn1c(=O)c2ccccc2n2c(=S)[nH]nc12 | 16.2
70 | O=C1Nc2cc(C(=O)NCCCN3CCCC3)ccc2S/C1=C\c1ccccc1 | -51.4
71 | CCN(CC)CCCNC(=S)N1CCn2c(nc3ccccc32)C1 | -18.6
72 | CCN(C(=O)COc1nc(C)cc(C)c1C#N)c1ccccc1 | -11.8
73 | Cc1ccc(/C=C/c2nnc(-c3ccc(C)cc3)o2)cc1 | 11.3
74 | COc1ccc(-c2cc(C(=O)OCC(=O)NC(C)C)c3ccccc3n2)cc1 | 9.82
75 | CCn1c2ccccc2c2cc(N=C3SC(CC(=O)Nc4ccccc4OC)C(=O)N3CCOC)ccc21 (stereo not drawn) | -3.75
76 | COc1cccc(Nc2nnc(SCC(=O)N3CC(C)OC(C)C3)s2)c1 (stereo not drawn) | -2.95
77 | C=CCn1c(/N=C/c2ccc(OC)cc2)nc2ccccc21 | 1.65
78 | O=C(c1cc(-c2ccco2)nc2ccccc12)N1CCN(c2ccc(F)cc2)CC1 | -28.8
79 | O=C(O)C(=O)O.O=[N+]([O-])c1ccccc1CNCCc1ccc(F)cc1 | -50
80 | Cc1ccc2oc(=O)c3cnn(CC(=O)N(CCCN4CCOCC4)Cc4ccco4)c3c2c1 | -57.5
81 | CSc1cc(C)nc(N(C)C(C)=O)n1 | 27.1
82 | CN(C(N)=S)c1ccccc1 | 10.2
83 | CCOC(=O)N1CCC(NC(=O)CSCc2nc(-c3ccc(C)cc3)oc2C)CC1 | -4.45
84 | O=c1ccnc(SCCC(F)=C(F)F)[nH]1 | 11.9
85 | COc1ccc(-c2cc(=O)oc3c(C)c(OC(C)C(C)=O)ccc23)cc1 (stereo not drawn) | -8.33
86 | CSc1ncccc1C(=O)OCC(=O)NCc1ccc2c(c1)OCO2 | -1.09
87 | Cc1cc(C)nc(-n2nc(C)c3c(C(F)(F)F)cc(=O)[nH]c32)n1 | 5.73
